We go through 20 molecules from article PMC9911399, “Two distinct binding modes provide the RNA-binding protein RbFox with extraordinary sequence specificity”.

B1: AGCGGGU (DNA:RNA)
RNA: GGGAGACCGGAAUUCAGAUUGUCCAGCGGGUUUAAAUCCCGUCGUAGCCACCA
DNA 1: CAATCTGAATTCCGGTCTCCC
DNA 2: TGGTGGCTACGACGGGATT
B2: CCACACA (DNA:RNA)
RNA: GGGAGACCGGAAUUCAGAUUGUCCCCACACAUUAAAUCCCGUCGUAGCCACCA
DNA 1: CAATCTGAATTCCGGTCTCCC
DNA 2: TGGTGGCTACGACGGGATT
B3: GAAGGCG (DNA:RNA)
RNA: B1 RNA with A25G, G26A, C27A, G30C, U31G
DNA 1: CAATCTGAATTCCGGTCTCCC
DNA 2: TGGTGGCTACGACGGGATT
B4: UCAUCAU (DNA:RNA)
RNA: B2 RNA with C25U, C28U, A29C, C30A, A31U
DNA 1: CAATCTGAATTCCGGTCTCCC
DNA 2: TGGTGGCTACGACGGGATT
B5: AACGACA (DNA:RNA)
RNA: B1 RNA with G26A, G29A, G30C, U31A
DNA 1: CAATCTGAATTCCGGTCTCCC
DNA 2: TGGTGGCTACGACGGGATT
B6: AGAGAUC (DNA:RNA)
RNA: B1 RNA with C27A, G29A, G30U, U31C
DNA 1: CAATCTGAATTCCGGTCTCCC
DNA 2: TGGTGGCTACGACGGGATT
B7: AUCUGGG (DNA:RNA)
RNA: B1 RNA with G26U, G28U, U31G
DNA 1: CAATCTGAATTCCGGTCTCCC
DNA 2: TGGTGGCTACGACGGGATT
B8: UACUAUU (DNA:RNA)
RNA: B1 RNA with A25U, G26A, G28U, G29A, G30U
DNA 1: CAATCTGAATTCCGGTCTCCC
DNA 2: TGGTGGCTACGACGGGATT
B9: AGCCUGG (DNA:RNA)
RNA: B1 RNA with G28C, G29U, U31G
DNA 1: CAATCTGAATTCCGGTCTCCC
DNA 2: TGGTGGCTACGACGGGATT
B10: ACCUACA (DNA:RNA)
RNA: B2 RNA with C25A, A27C, C28U
DNA 1: CAATCTGAATTCCGGTCTCCC
DNA 2: TGGTGGCTACGACGGGATT
B11: GCAGGCU (DNA:RNA)
RNA: B1 RNA with A25G, G26C, C27A, G30C
DNA 1: CAATCTGAATTCCGGTCTCCC
DNA 2: TGGTGGCTACGACGGGATT
B12: CUGGCUC (DNA:RNA)
RNA: B1 RNA with A25C, G26U, C27G, G29C, G30U, U31C
DNA 1: CAATCTGAATTCCGGTCTCCC
DNA 2: TGGTGGCTACGACGGGATT
B13: CGAGAUA (DNA:RNA)
RNA: B2 RNA with C26G, C28G, C30U
DNA 1: CAATCTGAATTCCGGTCTCCC
DNA 2: TGGTGGCTACGACGGGATT
B14: ACAAAGU (DNA:RNA)
RNA: B1 RNA with G26C, C27A, G28A, G29A
DNA 1: CAATCTGAATTCCGGTCTCCC
DNA 2: TGGTGGCTACGACGGGATT
B15: UACUAUG (DNA:RNA)
RNA: B1 RNA with A25U, G26A, G28U, G29A, G30U, U31G
DNA 1: CAATCTGAATTCCGGTCTCCC
DNA 2: TGGTGGCTACGACGGGATT
B16: UGACCCA (DNA:RNA)
RNA: B2 RNA with C25U, C26G, A29C
DNA 1: CAATCTGAATTCCGGTCTCCC
DNA 2: TGGTGGCTACGACGGGATT
B17: UAUAAUU (DNA:RNA)
RNA: B1 RNA with A25U, G26A, C27U, G28A, G29A, G30U
DNA 1: CAATCTGAATTCCGGTCTCCC
DNA 2: TGGTGGCTACGACGGGATT
B18: UCUUAUU (DNA:RNA)
RNA: B2 RNA with C25U, A27U, C28U, C30U, A31U
DNA 1: CAATCTGAATTCCGGTCTCCC
DNA 2: TGGTGGCTACGACGGGATT
B19: AGAAUGC (DNA:RNA)
RNA: B1 RNA with C27A, G28A, G29U, U31C
DNA 1: CAATCTGAATTCCGGTCTCCC
DNA 2: TGGTGGCTACGACGGGATT
B20: ACAGAAC (DNA:RNA)
RNA: B2 RNA with C25A, C28G, C30A, A31C
DNA 1: CAATCTGAATTCCGGTCTCCC
DNA 2: TGGTGGCTACGACGGGATT

Residue numbers refer to the chain shown, from its start. The list shows a part of the results.

The test has as its target T1, RBFOX1 RRM (Homo sapiens, UniProt Q9NWB1 109-208).
T1 sequence: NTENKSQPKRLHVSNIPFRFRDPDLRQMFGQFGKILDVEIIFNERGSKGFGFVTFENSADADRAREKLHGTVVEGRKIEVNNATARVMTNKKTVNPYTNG
Kind of test: EMSA; HiTS-Eq, 1 nM pool, 10 min; buffer printed only for the single-RNA assays: 10 mM Tris pH 7.5, 150 mM NaCl, 3.4 mM EDTA, 0.001% NP-40, 30 C. Conditions: tags: His6 N-terminal (pET28a); label: 5' 32P. The method in brief:
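These values rest on relative association constants, computed from read-count changes of each RNA species versus the control reaction and normalised to the cognate motif. Reads came from free RNA recovered by 8% native PAGE after purified RbFox RRM (wild type or mutant) at increasing concentrations was equilibrated for 10 min in 50 µL with 1 nM of a 5′-radiolabelled pool with 7 randomized nucleotides and DNA-annealed flanks.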
On the technique in general: A gel shift assay detects complexes by their altered migration in electrophoresis.
With B1, the binding signal was 0.0177 KA relative to UGCAUGU.

Turning to B2, the binding signal is 0.000537 KA relative to UGCAUGU.

B3: the binding signal is 0.0185 KA relative to UGCAUGU.

Consider B4, for which the binding signal was 0.00181 KA relative to UGCAUGU.

On to B5, for which the binding signal was 0.000724 KA relative to UGCAUGU.

Take B6: the binding signal was 0.0129 KA relative to UGCAUGU.

Consider B7, for which the binding signal was 0.00383 KA relative to UGCAUGU.

B8: the binding signal was 0.0027 KA relative to UGCAUGU.

In the case of B9, the binding signal is 0.0177 KA relative to UGCAUGU.

Consider B10, for which the binding signal was 0.00126 KA relative to UGCAUGU.

With B11, the binding signal was 0.0121 KA relative to UGCAUGU.

For B12, the binding signal is 0.0211 KA relative to UGCAUGU.

Consider B13, for which the binding signal was 0.00339 KA relative to UGCAUGU.

For B14, the binding signal is 0.00135 KA relative to UGCAUGU.

For the molecule B15, the binding signal was 0.0137 KA relative to UGCAUGU.

For B16, the binding signal is 0.00291 KA relative to UGCAUGU.

Take B17: the binding signal was 0.0037 KA relative to UGCAUGU.

With B18, the binding signal is 0.00464 KA relative to UGCAUGU.

For the molecule B19, the binding signal was 0.022 KA relative to UGCAUGU.

In the case of B20, the binding signal was 0.00243 KA relative to UGCAUGU.
